Measured values as given in PubChem BioAssay AID1345083 (National Center for Advancing Translational Sciences (NCATS), 2018).
Hit rate of the full screen: of about 94,000 compounds, about 6,200 (6.6%) were called active. The inconclusive results got no clear call from the source; some entries with a clear call stand among them for comparison. Calls follow the shape of the dose curve; as a rule, active = well fitted inhibition curve with a large enough effect; inconclusive = small, poorly fitted or top-dose-only effect; inactive = flat fitted curve, though single readings scatter. A potency beside an inconclusive call is a rough fit, not a confirmed value.

experiment: Cytotoxic Profiling in HEK 293 Cell Line of Diverse Libraries Using Quantitative High-Throughput Screening; conditions: HEK 293 viability, ATP luminescence (CellTiter-Glo), 48-72 h; activity change, negative = cytotoxicity: at 115 µM (top of the series) unless noted; series mostly up to 115 µM; also: nearly all actives have a fitted effect of over 60% in size
How it was run: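 CellTiter-Glo luminescence (cellular ATP) was read after 48 or 72 hr of compound exposure at 37 degree Celsius. Cells were HEK 293 plated at 250 cells/well.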
% is scaled to controls: 0 for no effect and ±100 for the full control effect; potency is read from the fitted curve at half-maximal effect; tags tell the direction and shape of the fitted curve.

Row | SMILES | Potency | activity change, negative = cytotoxicity | outcome
1 | O=C(NCc1nnc2ccc(-c3ccccc3)nn12)c1ccc(F)cc1Cl | inconclusive: 50.1 µM [inhibitor, partial curve, poor fit] | – | –
2 | COc1cccc(-c2nc3c([nH]2)CN(C(C)C(=O)NC2CCCCC2)CC3)c1 (configuration not stated) | inconclusive: 79.4 µM [inhibitor, partial curve, poor fit] | – | –
3 | Cc1nc(C(=O)N2CCC(c3nnc(Cn4cccn4)n3C)CC2)cs1 | – | inactive: -16.8% | –
4 | CN1C(=O)CC[C@]2(C(=O)N3CCN(c4ccccc4)CC3)CCCC[C@@H]12 | inconclusive: 35.5 µM [inhibitor, partial curve, poor fit] | – | –
5 | CC1(c2ccccc2)N(Cc2ccccc2C#N)C(=O)OC12CCN(c1ccncc1)CC2 (configuration not stated) | inconclusive: 100 µM [inhibitor, partial curve] | – | –
6 | COc1ccc2[nH]c3c(c2c1)CCNC31CCN(C(=O)c2cccn2C)CC1 | inconclusive: 31.6 µM [inhibitor, full curve] | – | –
7 | CCS(=O)(=O)N1CCc2nc(N(C)Cc3cccnc3)[nH]c(=O)c2CC1 | inconclusive: 89.1 µM [inhibitor, single point] | – | –
8 | Cc1cc(Cl)ccc1S(=O)(=O)N1CC(c2nc(-c3ccncc3)no2)C1 | inconclusive: 31.6 µM [inhibitor, partial curve, poor fit] | – | –
9 | Cc1ccc(C(=O)N2C[C@@H](Oc3ccccc3)C[C@H]2C(=O)NC2CC2)s1 | inconclusive: 89.1 µM [inhibitor, partial curve, poor fit] | – | –
10 | COc1ccc(CN2CCN(c3ncnc4c3CCC4)CC2CCO)c(C)c1C (configuration not stated) | active: 10 µM | – | –
11 | Cn1ccc(C(=O)N2CCC3(CC2)CC(=O)N(C/C=C/c2ccccc2)C3)n1 | – | inactive: -29.6% | –
12 | O=C(c1ccc(=O)[nH]c1)N1C[C@@H](COCC2CC2)[C@H](c2ccncc2)C1 | inconclusive: 100 µM [inhibitor, single point] | – | –
13 | Fc1ccc(CNC[C@H]2Cn3c(-c4ccc(Cl)cc4)cnc3CO2)cc1 | active: 79.4 µM | – | –
14 | c1cnn(-c2ccc(-c3nc(C4CCOC4)no3)cc2)c1 (configuration not stated) | inconclusive: 50.1 µM [inhibitor, partial curve, poor fit] | – | –
15 | CCN1CCN(c2nc3c(s2)CN(C(=O)COC)CC3)CC1 | inconclusive: 89.1 µM [inhibitor, single point] | – | –
16 | CC(C)NC(=O)N1CCCC(c2noc(COc3ccccc3F)n2)C1 (configuration not stated) | – | inactive: -8.24% | –
17 | Cc1noc2c(NCCCn3ccnc3)cc(-c3ccccc3)nc12 | inconclusive: 126 µM [inhibitor, single point] | – | –
18 | Cn1cccc1-c1noc(C2CCN(C(=O)CCn3cnc4ccccc43)C2)n1 (configuration not stated) | inconclusive: 50.1 µM [inhibitor, partial curve, poor fit] | – | –
19 | O=[S+]([O-])(Nc1ccccc1)c1ccc2c(c1)OCCN(Cc1ccccc1F)C2 | inconclusive: 63.1 µM [inhibitor, partial curve, poor fit] | – | –
20 | CCOc1ccc(C2NC(=O)N(CC(=O)NCCc3cccs3)C3=C2C(=O)OC3)cc1 (configuration not stated) | inconclusive: 44.7 µM [inhibitor, partial curve, poor fit] | – | –
21 | O=C(NCc1ccc(F)c(F)c1)c1ccc2nnc(-c3cccc(C(F)(F)F)c3)n2c1 | active: 31.6 µM | – | –
22 | O=C(NCc1cccs1)c1ccc2oc(-c3ccncc3)nc2c1 | inconclusive: 50.1 µM [inhibitor, partial curve, poor fit] | – | –
23 | CCN1c2cc(C(=O)Nc3cc(C)ccc3OC)ccc2C(=O)N2CCCCCC21 (configuration not stated) | inconclusive: 35.5 µM [inhibitor, partial curve] | – | –

Row | SMILES | Potency | activity change, negative = cytotoxicity | outcome
24 | O=C(c1ccc(F)cc1)N1CC(Oc2ccc(-c3nc(-c4ccccc4)no3)cc2)C1 | inconclusive: 35.5 µM [inhibitor, full curve, poor fit] | – | –
25 | COc1ccc(CN[C@H]2[C@H](O)[C@@H](N3CCN(c4ccccc4OC)CC3)[C@@H]3OC[C@H]2O3)cc1 | inconclusive: 89.1 µM [inhibitor, partial curve, poor fit] | – | –
26 | Nc1ncccc1CN1CCc2ncc(C(=O)NCc3ccccc3)n2CC1 | inconclusive: 100 µM [inhibitor, partial curve] | – | –
27 | COc1ccc(CNC(=O)N2CC3CC(C2)[C@H]2CCCC(=O)N2C3)cc1 (some centres not stated) | – | inactive: -2.24% | –
28 | CC(C)(C)NC(=O)c1ccc(-c2nnc3ccc(NC(=O)C4CC4)cn23)cc1 | inconclusive: 89.1 µM [inhibitor, single point] | – | –
29 | CNC(=O)c1cc(C2CC2)nc2onc(C3CCN([S+](=O)([O-])C(C)C)C3)c12 (configuration not stated) | – | inactive: -12.2% | –
30 | Cn1nc(C(=O)N2CCC(OCCOc3ccccc3)CC2)c2ccccc21 | inconclusive: 79.4 µM [inhibitor, partial curve] | – | –
31 | Cc1ccc(C(=O)NCCn2cccc2-c2nc(-c3ccccc3)no2)cc1 | – | inactive: -0.921% | –
32 | CCN1CC2(CCC1=O)CCN(Cc1ccc(C(F)(F)F)c(F)c1)CC2 | inconclusive: 14.1 µM [inhibitor, full curve] | – | –
33 | CCc1nc(-c2c(-c3ccccc3)ncn2CCc2ccncc2)c(C)[nH]1 | – | – | inactive
34 | Cc1noc2c(-c3ccc4c(ccn4C)c3)cc(-c3cccnc3)nc12 | inconclusive: 70.8 µM [inhibitor, full curve, poor fit] | – | –
35 | COc1ccccc1NC(=O)c1cc2c(n1C)CCN(Cc1ccc(F)cc1)C2 | active: 31.6 µM | – | –
36 | O=C(NC1CCCCC1)c1ccc2nnc(-c3cccc(C(F)(F)F)c3)n2c1 | active: 31.6 µM | – | –
37 | O=C(CCNc1c(-c2cccc(F)c2)nc2cnccn12)NCc1ccc(Cl)cc1 | inconclusive: 89.1 µM [inhibitor, single point] | – | –
38 | CN(C1CCc2ccccc21)S(C)(=O)=O (configuration not stated) | – | inactive: -13.1% [at 230 µM] | –
39 | COc1ccccc1C(=O)N[C@H]1[C@H](O)[C@H](O)C[C@@H]1c1ccc(C(F)(F)F)cc1 | inconclusive: 112 µM [inhibitor, partial curve, poor fit] | – | –
40 | Cc1ccc(CNC(=O)c2ccc3c(c2)n(Cc2ccccc2)c(=O)c2ccnn23)o1 | inconclusive: 89.1 µM [inhibitor, single point] | – | –
41 | COCCCNC(=O)c1ccc2nnc(CC3CC3)n2c1 | – | inactive: -14% [at 172 µM] | –
42 | COc1cccc(-c2ccc(CN3CCCC(NC(=O)C(C)(C)C)C3)cc2)c1 (configuration not stated) | active: 50.1 µM | – | –
43 | CCc1ccc(C(=O)N2CCC[C@H]2c2nc(-c3ccc(OC)c(OC)c3)no2)cc1 | inconclusive: 56.2 µM [inhibitor, partial curve, poor fit] | – | –
44 | Cn1ncc2c(C(=O)NCC3CC3)cc(-c3cccnc3)nc21 | inconclusive: 56.2 µM [inhibitor, partial curve, poor fit] | – | –
45 | O=C(c1ccc(Cn2ccnc2)o1)N1CCC2(CC1)NCCc1c2[nH]c2ccccc12 | inconclusive: 50.1 µM [inhibitor, partial curve, poor fit] | – | –
46 | COc1ccc(NC(=O)Cc2ccc(N(Cc3ccc(C)cc3)C(=O)c3ccco3)cc2)cc1 | inconclusive: 20 µM [inhibitor, full curve] | – | –

Row | SMILES | Potency | activity change, negative = cytotoxicity | outcome
47 | O=C(c1ccccc1F)N1CCC(C(=O)N2CCC(c3nc4ncccc4[nH]3)CC2)CC1 | – | inactive: -0.895% | –
48 | C1CC(c2noc(C34CC5CC(CC(C5)C3)C4)n2)CO1 (configuration not stated) | inconclusive: 56.2 µM [inhibitor, partial curve] | – | –
49 | Cc1ccc(OCc2nc(C3CCCCN3)no2)cc1 (configuration not stated) | inconclusive: 89.1 µM [inhibitor, single point] | – | –
50 | Cc1cc(C(=O)N2C[C@@H]3CCCN4CCC[C@@H]([C@H]34)[C@H]2CCCC(=O)NCc2ccccc2)nn1C | – | inactive: -0.564% | –
51 | Cc1ccc(-c2ncc(NC(=O)c3cc(F)ccc3F)cn2)cc1 | – | inactive: 1.74% | –
52 | O=C(Cc1[nH]nc2ccccc12)N[C@H](c1ccc2c(c1)CCO2)C1CC(O)C1 (some centres not stated) | – | inactive: -3.83% | –
53 | Cc1ccc(NC(=O)N2CCc3c(C(=O)NCc4ccncc4)cccc32)cc1 | active: 31.6 µM | – | –
54 | Cc1ccc(NC(=O)Nc2ccccc2)c(=O)n1CC(=O)NCC1CCCO1 (configuration not stated) | – | inactive: -0.721% | –
55 | COCC1CN(C2CCC2)CC12CCN(C(=O)C(C)C)CC2 (configuration not stated) | inconclusive: 89.1 µM [inhibitor, single point] | – | –
56 | Cc1ccccc1S(=O)(=O)N1CCCC(CCC(=O)NCc2ccc(F)cc2)C1 (configuration not stated) | inconclusive: 44.7 µM [inhibitor, partial curve] | – | –
57 | Cc1cc(C(=O)N2CCCCC2)c2c(C3CCCN3)noc2n1 (configuration not stated) | – | – | inactive
58 | COc1ccc(N2CC(C(=O)NCCN3CCOC3=O)CC2=O)cc1Cl (configuration not stated) | – | inactive: -18% | –
59 | CSCC(=O)N[C@H]1CN(CCCn2nc(C)cc2C)C[C@@H]1C1CC1 | – | inactive: -8.08% | –
60 | COc1cc(C)c2c(c1C)C[C@H](C(C)C(=O)NCc1cccs1)CC2 (some centres not stated) | inconclusive: 44.7 µM [inhibitor, full curve] | – | –
61 | CCN(Cc1ccncc1)C(=O)CCC1CCN(S(=O)(=O)c2ccccc2)CC1 | inconclusive: 28.2 µM [inhibitor, partial curve, poor fit] | – | –
62 | O=C(NC1CCC(O)CC1)c1ccc(-c2ncc3cnc(-c4ccccc4)cn23)cc1 (configuration not stated) | inconclusive: 22.4 µM [inhibitor, full curve, poor fit] | – | –
63 | Cc1cccc(NC(=O)c2cc(-c3ccc[nH]3)n[nH]2)c1 | – | inactive: -1.96% | –
64 | CNC(=O)C1CCCN1c1nccc(Nc2ccccc2F)n1 (configuration not stated) | – | – | inactive [at 172 µM]
65 | O=C(Cc1cccc(F)c1)N1CC(Oc2cccc(-c3nc(-c4ccccc4)no3)c2)C1 | inconclusive: 20 µM [inhibitor, full curve, poor fit] | – | –
66 | COC[C@H]1CCCN1c1nc(CCN)nc2sc(C)c(C)c12 | inconclusive: 89.1 µM [inhibitor, single point] | – | –
67 | O=C(c1ccc(F)cc1)N1CCC(C(=O)N2CCC(c3ccccc3)CC2)CC1 | inconclusive: 50.1 µM [inhibitor, partial curve, poor fit] | – | –
